Results on 56 variants are retold here after the RNAGym collection of RNA variant scans (doi:10.7554/elife.90254).

Read counts are not given, so values of variants with three or more changes are uncertain.

To fix the notation:
B1: LINE1-mini (parent)
chain: GGCAGAGCUCAACACAGCGUGGCAAAGUGGCUGUGGCUAGACUGCC

The series covers variants of B1. The series is described as follows: self-cleavage, relative activity (ratio to wild type); higher = more cleavage; in vitro, sequencing; the parent is a self-cleaving ribozyme.
Turning to GGCAGAGUUCGACAUAGCGUCGCAAAGUGGCUGUGGCUAGACUGCC, the self-cleavage was 0.04.

GGCAGAGUUCAACACCGCGUGACAAAGUGGCUGUGGCUAAACUGCC: the self-cleavage was found to be 0.06.

Turning to GGCAGAGUUCAACGUAGCGUGGCAAAGUGGCUGUGGCUAUACUGCC, the self-cleavage is 0.12.

Regarding GGCAGAGUUCAACCCAGCGUGGUAAAGCGGCUGUGGCUAGACUGCC, the self-cleavage turned out to be 0.15.

For GGCAGAGUUCAGCACAGCGUGGCAAAGUGGCUAUGGCGAGACUGCC, the self-cleavage amounted to 0.02.

With GGCAGAGUUCAACACGGCGUGGCAAAGUGGUUGUGGCUAGACUACC, the self-cleavage came out at 0.02.

Regarding GGCAGAGGACAACACAGCGUCGCCAAGUGGCGGUGGCUAGACUGCC, the self-cleavage amounted to 0.11.

In the case of GGCAGAGUUCACCACAGCGUGGCAAAGGGGCUGUGGCUAGACUGCC, the self-cleavage stood at 0.02.

On to GGCAGAGUUCAACACGGCGUGGCAAAUUGGCUGUGGCUAGACUGCC, for which the self-cleavage amounted to 0.03.

Consider GGCAGAGUUCAACACUGCGUGGCCAAGUUGCUGUGGCUAGACGGCC, for which the self-cleavage is 0.04.

In the case of GGCAGAGUUCAGCACAGCGUGGGAAAGUGGCUGUGGCUAGACUGCC, the self-cleavage came to 0.02.

Turning to GGCAGAGGUCAACACAGCGAGGCAAAGUGGAUGUGGCUAGACUCCC, the self-cleavage is 0.01.

In the case of GGCAGAGGUCAACACAGCGUGGCAAAGGGGCUGUGGCUCGACUGCC, the self-cleavage was determined as 0.04.

In the case of GGCAGAGUUCAACUGAGCGUGGCAAAGUGGCUAUGGCUAGACUGCC, the self-cleavage was determined as 0.69.

With GGCAGAGUUCUACACAGCGUGGCAAAGUGGCUGUGUCUAGACUGCC, the self-cleavage is 0.

In the case of GGCAGAGGGCAACACAGCGUGGCAAAGUGGCUGUGAGUAGACUGCG, the self-cleavage was 0.07.

Regarding GGCAGAGGUCAACACAGCGAGGCAUAGUGGCUGUGGCUAGACUGCC, the self-cleavage came out at 0.16.

With GGCAGAGUUCAGCACCGCGUGGCAAAGUGGCCGGGGCUAGACUGCC, the self-cleavage was 0.06.

Take GGCAGAGUUCCACACAUCGUGGCAAAGUGGCUGUGGCUAGACUGCC: the self-cleavage was 0.03.

With GGCAGAGGAAAACACAGCGUGGCAAAGUGGCUGUGGCUAGUCUGCC, the self-cleavage worked out at 0.03.

For the variant GGCAGAGUUCAUCACAGUGUGGCAAAGUGGCUGUGGCUAGACUGCC, the self-cleavage worked out at 0.13.

As for GGCAGAGUUCUACAUAGCGUGGCAAAGGGGCUGCGGCUAGACUGCC, the self-cleavage amounted to 0.02.

Consider GGCAGAGGACAACACAGCGUGGCAAACUGGCUGUGGCUAGACUGCC, for which the self-cleavage was determined as 0.04.

Turning to GGCAGAGGUCAACACAGCGAGCCUGAGUGGCUGUGGCUAGACUGCC, the self-cleavage was determined as 0.59.

Take GGCAGAGGUCAACACAGCGUGGCAAAGUGGCUGCGGCUCGACUGCA: the self-cleavage was determined as 0.01.

Take GGCAGAGUUCAACACGGUGUGGCAAAGUGGCUGUGGGUAGACUGCC: the self-cleavage was found to be 0.05.

GGCAGAGUUCGAUACAGCGUGGCAAAGUGGCUGUGGAUGGACUGCC: the self-cleavage amounted to 0.01.

Take GGCAGAGUUCUACACAGCGUGGCAAAGAGGCUGUCGCUAGACUGCC: the self-cleavage is 0.02.

With GGCAGAGUUCAACGCAGCUUGGCAAAGUGACUGUGGCUAGACUGCU, the self-cleavage is 0.02.

As to GGCAGAGGUCAACACAGCGUGGCAAAGUGGCGGUGGCUAGAAUGCC, the self-cleavage came out at 0.02.

As for GGCAGAGUUCCACACAGCGUGGCAAAGUGGCUCUGCCUAGACUGUC, the self-cleavage stood at 0.

Turning to GGCAGAGUUCAACACUGCGUGGCUAAGUGGCUGUGCCUAGACUGCC, the self-cleavage is 0.1.

For GGCAGAGUUCGACACAGCGUGGCAAAGUGGCUUUGGCUAGACAGCC, the self-cleavage was 0.04.

Regarding GGCAGAGGACAACACAGCGUGGCAAAGUGGAUGUGGCUAGAAUGCC, the self-cleavage is 0.06.

For GGCAGAGUUCGACACACCGUGGCCAAGUGGCUGUGGCUAGACUGCC, the self-cleavage came out at 0.03.

On to GGCAGAGUUCUACUCAGCGUGGCAAAGUGGAUGUGGCUCGUCUGCC, for which the self-cleavage worked out at 0.

With GGCAGAGGCCUACACAGCGUGGCUAACUGGCUGUGGCUAGACUGUC, the self-cleavage is 0.01.

Take GGCAGAGGUCAACACAGCGUGGCAAAGCGGCUGUGGCUAUACUGCC: the self-cleavage was 0.04.

GGCAGAGGUCAACACAGCGUGGCAAAGUGGCUGGGGCUGAACUGCC: the self-cleavage is 0.04.

Consider GGCAGAGUUCCACACCGUGUGGCAAAGUGGUUGUGGCUAUACUGCC, for which the self-cleavage amounted to 0.

As for GGCAGAGUUCAACGCAGCGUGGAAAAGUGGCUGUGGCUAAGCUGCC, the self-cleavage was determined as 0.01.

Regarding GGCAGAGGUCAACACAGCGAGGCAAAGUGGAUUUGGCUAGACUGCC, the self-cleavage was 0.01.

For GGCAGAGGUCAACACAGCGUGGCAAAGAGGCUGUGGCUAUACUGCC, the self-cleavage amounted to 0.05.

As for GGCAGAGGUCAACACAGCGUGGCAAAGUGGCUGGGGCUAGACUGCU, the self-cleavage came out at 0.02.

As for GGCAGAGUUCUACAUAGCGUUGCAAAGUGUCUGUGGCUAGACUGCC, the self-cleavage was 0.05.

For the variant GGCAGAGUUCGACACAGCCUGGCAAAGUGGCUGUGGCUAGAUUGCC, the self-cleavage amounted to 0.02.

On to GGCAGAGGGCAACAGAGCGUGGCAAAGUGGCUGUGGCUAGACUGCC, for which the self-cleavage worked out at 0.11.

Turning to GGCAGAGUUCAACCAAGCGCGGCAAAGUGGUUGUGGCUAGACUGCC, the self-cleavage turned out to be 0.09.

In the case of GGCAGAGGACAACAUAGUGUGGCAUAGUGGCUGUGGCUAGACUGCC, the self-cleavage was 0.05.

As to GGCAGAGUUCAGCACAGCGUGGUAAAGUGGCUGUGGCUUGACUGCC, the self-cleavage was found to be 0.01.

For GGCAGAGUUCACCACAGAGUGGCAAAGUGGCUGUGGCUAGAUUGCC, the self-cleavage turned out to be 0.06.

On to GGCAGAGUUCAACUCAGCGUGGCAAAGUGGCCGUGUCUAGACUGCA, for which the self-cleavage was 0.03.

For GGCAGAGGUCAACACAGCGAGGCAAAGUGGCUUUGGCUAGACCGCC, the self-cleavage was determined as 0.01.

In the case of GGCAGAGUUCAGCACAGCGCGGAAAAGUGGCUGUGGCUAGACUGCC, the self-cleavage came to 0.07.

As for GGCAGAGUUCAACCCAGCGUGGCAAAGUGGCUGUGGCUAUACUGCC, the self-cleavage stood at 0.2.

For the variant GGCAGAGUUCCACACAGCGUGGCAAUGUGGCUGUGGCUAGACUGCC, the self-cleavage amounted to 0.01.
